Measurements from paper PMC10167072, “Human granzyme B binds Plasmodium falciparum Hsp70-x and mediates antiplasmodial activity in vitro” (Cell Stress & Chaperones, 2023).

Experiments:
Conditions in all cases: both partners purified
[1] = target: T1, human Hsp70 (human, UniProt P0DMV8-1); experiment: SPR; Hsp70 immobilised (100 µg/mL) on CMD 3D 500L chip, GrB analyte 0-2000 nM, 25 °C, PBS-Tween 20 with 20 mM EDTA pH 7.4, 25 μL/min, 1:1 Langmuir global fit; with ADP
T1 construct: human Hsp70, NP_005336.3 (pQE30/hHsp70); also called hHsp70; Hhsp70; source: E. coli BL21, purified (Ni-NTA)

[2] = target: T1, human Hsp70; experiment: SPR; Hsp70 immobilised (100 µg/mL) on CMD 3D 500L chip, GrB analyte 0-2000 nM, 25 °C, PBS-Tween 20 with 20 mM EDTA pH 7.4, 25 μL/min, 1:1 Langmuir global fit; with ATP
T1 sequence (P0DMV8 whole entry): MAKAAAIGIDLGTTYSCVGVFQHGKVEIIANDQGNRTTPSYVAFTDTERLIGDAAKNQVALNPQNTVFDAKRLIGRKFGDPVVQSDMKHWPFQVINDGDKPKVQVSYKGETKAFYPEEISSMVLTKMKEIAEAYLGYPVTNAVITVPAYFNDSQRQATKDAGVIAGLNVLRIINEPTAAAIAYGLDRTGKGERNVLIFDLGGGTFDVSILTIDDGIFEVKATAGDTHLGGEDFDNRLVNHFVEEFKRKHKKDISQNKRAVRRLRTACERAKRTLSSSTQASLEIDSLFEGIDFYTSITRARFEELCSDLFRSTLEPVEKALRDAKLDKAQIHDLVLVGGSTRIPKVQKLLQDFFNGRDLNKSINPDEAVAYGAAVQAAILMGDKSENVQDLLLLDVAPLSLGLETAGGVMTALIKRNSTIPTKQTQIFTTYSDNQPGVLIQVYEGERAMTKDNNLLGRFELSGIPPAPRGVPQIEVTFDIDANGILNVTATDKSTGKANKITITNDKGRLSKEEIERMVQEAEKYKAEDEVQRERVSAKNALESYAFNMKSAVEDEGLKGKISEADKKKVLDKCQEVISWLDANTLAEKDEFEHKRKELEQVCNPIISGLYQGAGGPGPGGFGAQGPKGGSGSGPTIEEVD

[3] = target: T1, human Hsp70; experiment: SPR; Hsp70 immobilised (100 µg/mL) on CMD 3D 500L chip, GrB analyte 0-2000 nM, 25 °C, PBS-Tween 20 with 20 mM EDTA pH 7.4, 25 μL/min, 1:1 Langmuir global fit; no nucleotide

B1: human granzyme B (enzyme)
chain: not shown
notes: granzyme B, human, serine protease; Bought protein; also called GrB; human GrB; source: bought: Hölzel Diagnostics, Cologne, Germany
For B1, the Kd [1] was 5610 nM, the koff [1] was 0.00121 s⁻¹ and the kon [1] was 1620 M⁻¹ s⁻¹. The Kd [2] was 200 nM, the koff [2] was 0.000898 s⁻¹ and the kon [2] was 3950 M⁻¹ s⁻¹. It also gave a Kd [3] of 1530 nM, a koff [3] of 0.000989 s⁻¹ and a kon [3] of 2370 M⁻¹ s⁻¹.
